Experimental data published in PubChem BioAssay (NCI).
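All cell lines were grown in 96-well plates and treated with compound for 48 hours. GI50: concentration for 50% inhibition of growth. The concentration for full growth arrest is given as TGI.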

system: NCI-H322M lung; test: NCI-60 cell line screen, 48 h

**Q.** For `COc1ccc(CCC2c3c(cc4c(c3OC)OCO4)CCN2C)cc1` (stereo not drawn), which GI50 is on record?
**A.** The GI50 was 6.85 µM.

**Q.** What about the TGI of the same molecule?
**A.** Its TGI is 70.5 µM.

**Q.** `CC1(C)CC[C@]2(C(=O)N3CCOCC3)CC[C@]3(C)C(=CC[C@@H]4[C@@]5(C)CC[C@H](NCO)C(C)(C)[C@@H]5CC[C@]43C)[C@H]2C1` was tested. Which GI50 did it give?
**A.** The GI50 was 4.03 µM.

**Q.** And the TGI?
**A.** The TGI was 8.42 µM.

**Q.** Which GI50 does the source give for `COc1cccc2nc(Nc3cccc(NC(=O)c4ccc(CN5CCN(C)CC5)c(C(F)(F)F)c4)c3)ccc12` here?
**A.** Its GI50 is 2.3 µM.

**Q.** And the TGI?
**A.** The TGI was 6.32 µM.

**Q.** What does the source list for `COc1cc2c3c(n(CCCn4ccnc4)c(=O)c2cc1OC)-c1nc2c(cc1C3=O)OCO2`?
**A.** GI50: > 35 µM; TGI: > 100 µM
